# Laboratory results: the supplement of paper PMC10670038
# Counter-ions that a name gives are not always drawn. ± gives the standard deviation of the averaged measurements. The full ranking holds about 2,000 compounds; the median of “relative cell viability vs DMSO, compound + 0.2 uM CuET” is about 1, and the lowest 2% start at about 0.25. Some of the results follow.
# Tested on: TE10
# Assay: relative cell viability vs DMSO, compound + 0.2 uM CuET (fraction); TE10 is an esophageal squamous carcinoma line; higher = less cytotoxic
# Settings: 2 µM; co-treatment: CuET (bis(diethyldithiocarbamate)copper) 0.2 uM; 48 h
# Experimental: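 TE10 ESCC cells (1,000/well, 384-well plates) were treated with Selleck bioactive library compounds at 2 uM combined with 0.2 uM CuET (copper diethyldithiocarbamate) for 48 h. Viability was read by CellTiter-Glo and expressed relative to DMSO wells. Two technical replicates (A, B).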
row,SMILES,relative cell viability
1,Cn1cc(-c2ccc3nnc(C(F)(F)c4ccc5ncccc5c4)n3n2)cn1,0.79 ± 0.39
2,c1ccc2[nH]c(-c3cscn3)nc2c1 [Thiabendazole],0.929 ± 0.01
3,CCC(CC)CC1(C(=O)Nc2ccccc2SC(=O)C(C)C)CCCCC1,0.962 ± 0.19
4,COC1=C2C[C@@H](C)C[C@H](OC)[C@H](O)[C@@H](C)/C=C(\C)[C@H](OC(N)=O)[C@@H](OC)/C=C\C=C(/C)C(=O)NC(=CC1=O)C2=O [Geldanamycin],0.712 ± 0.16
5,CN1CC2c3ccccc3Oc3ccc(Cl)cc3C2C1 (stereo not drawn) [Asenapine],1.2 ± 0.058
6,CNC(=O)Nc1ccc(-c2nc(N3CC4CCC(C3)O4)c3cnn(C4CCC5(CC4)OCCO5)c3n2)cc1,0.602 ± 0.047
7,COc1cc(Nc2ncc(F)c(Nc3ccc4c(n3)N(COP(=O)(O)O)C(=O)C(C)(C)O4)n2)cc(OC)c1OC [Fostamatinib (R788)],0.725 ± 0.024
8,Cc1nnc(C(C)C)n1C1C[C@H]2CC[C@@H](C1)N2CC[C@H](NC(=O)C1CCC(F)(F)CC1)c1ccccc1 (stereo in doubt) [Maraviroc],1.09 ± 0.018
9,CCCCCCCN(CC)CCCC(O)c1ccc(NS(C)(=O)=O)cc1 (stereo not drawn) [Ibutilide Fumarate],1.04 ± 0.081
10,Cn1c(=O)cc(N2CCC[C@@H](N)C2)n(Cc2ccccc2C#N)c1=O [Alogliptin],1.1 ± 0.21
11,CC1(C)S[C@@H]2[C@H](NC(=O)[C@H](NC(=O)N3CCN(S(C)(=O)=O)C3=O)c3ccccc3)C(=O)N2[C@H]1C(=O)O [Mezlocillin Sodium],1.13 ± 0.041
12,Cc1cccc(-c2[nH]c(CNc3ccccc3F)nc2-c2ccc3ncnn3c2)n1,1.05 ± 0.11
13,O=C(Nc1c(Cl)cncc1Cl)c1ccc(OC(F)F)c(OCC2CC2)c1 [Roflumilast],1.03 ± 0.0057
14,CCOC(=O)OC(C)OC1=C(C(=O)Nc2ccccn2)N(C)S(=O)(=O)c2ccccc21 (stereo not drawn) [Ampiroxicam],1.24 ± 0.21
15,"CCCS(=O)(=O)Nc1ccc(F)c(C(=O)c2c[nH]c3ncc(-c4ccc(Cl)cc4)cc23)c1F [Vemurafenib (PLX4032, RG7204)]",1.32 ± 0.11
16,C[C@@H]1O[C@@H](O[C@H]2[C@H](Oc3cc(O)c(C(=O)CCc4ccc(O)cc4)c(O)c3)O[C@H](CO)[C@@H](O)[C@@H]2O)[C@H](O)[C@H](O)[C@H]1O [Naringin Dihydrochalcone],1.07 ± 0.034
17,CCCCNC(=O)NS(=O)(=O)c1ccc(C)cc1 [Tolbutamide],1.13 ± 0.076
18,O=S(=O)(O)CCS [Mesna],1.08 ± 0.024
19,CNCCC(Oc1ccc(C(F)(F)F)cc1)c1ccccc1 (stereo not drawn) [Fluoxetine HCl],1.16 ± 0.068
20,Cc1nc2n(c(=O)c1CCN1CCC(c3noc4cc(F)ccc34)CC1)CCCC2 [Risperidone],1.11 ± 0.041
21,"C[C@@H](CN1CC(=O)NC(=O)C1)N1CC(=O)NC(=O)C1 [Dexrazoxane HCl (ICRF-187, ADR-529)]",1.1 ± 0.015
22,OCc1cc(C(O)CNCCCCCCOCCCCc2ccccc2)ccc1O (stereo not drawn) [Salmeterol Xinafoate],1.17 ± 0.076
23,CC(=O)OCC(=O)[C@@]12N=C(C)O[C@@H]1C[C@H]1[C@@H]3CCC4=CC(=O)C=C[C@]4(C)[C@H]3[C@@H](O)C[C@@]12C [Deflazacort],1.03 ± 0.012
24,CCN1CC(CCN2CCOCC2)C(c2ccccc2)(c2ccccc2)C1=O (stereo not drawn) [Doxapram HCl],0.987 ± 0.066
25,CC(=O)N[C@H]1[C@H]([C@H](O)[C@H](O)CO)OC(C(=O)O)=C[C@@H]1NC(=N)N [Zanamivir],1.28 ± 0.12

row,SMILES,relative cell viability
1,CCC(=O)O[C@]1(C(=O)CCl)[C@@H](C)C[C@H]2[C@@H]3C[C@H](F)C4=CC(=O)C=C[C@]4(C)[C@@]3(F)[C@@H](O)C[C@@]21C [Halobetasol Propionate],0.868 ± 0.059
2,Cc1coc2c1C(=O)C(=O)c1c-2ccc2c(C)cccc12 [Tanshinone I],0.465 ± 0.034
3,CCC1=C(C)CN(C(=O)NCCc2ccc(S(=O)(=O)NC(=O)N[C@H]3CC[C@H](C)CC3)cc2)C1=O [Glimepiride],1.23 ± 0.085
4,COc1cc(Nc2nc3ccccc3nc2NS(=O)(=O)c2ccc(NC(=O)c3ccc(C)c(OC)c3)cc2)cc(OC)c1,1.06 ± 0.041
5,C[C@@]12C[C@@]3(O)O[C@@H](O1)[C@]1(COC(=O)c4ccccc4)[C@H]3C[C@@]12O[C@@H]1O[C@H](CO)[C@@H](O)[C@H](O)[C@H]1O [Paeoniflorin],1.16 ± 0.059
6,CCS(=O)(=O)CCn1c([N+](=O)[O-])cnc1C [Tinidazole],1.11 ± 0.13
7,N#C[C@@H]1C[C@@H]2C[C@@H]2N1C(=O)[C@@H](N)C12CC3CC(CC(O)(C3)C1)C2 [Saxagliptin],1.01 ± 0.09
8,O=C1CCc2cc(OCCCCc3nnnn3C3CCCCC3)ccc2N1 [Cilostazol],1.25 ± 0.091
9,CCCCOc1cc(C(=O)NCCN(CC)CC)c2ccccc2n1 [Dibucaine HCl],1.08 ± 0.17
10,CCNC(=O)C#Cc1ccc2c(C(=Nc3ccc(CN(C)C)cc3)c3ccccc3)c(O)[nH]c2c1,0.753 ± 0.045
11,CCOC(=O)c1ccc(NC(=O)O[C@H]2[C@H](OC(=O)Nc3ccc4c(c3)OCO4)[C@@H](OC(=O)Nc3ccc4c(c3)OCO4)[C@@H](OC)O[C@@H]2CO)cc1,1.1 ± 0.08
12,Nc1ncnc2c1c(-c1cnc3[nH]ccc3c1)nn2C1CCCC1,0.704 ± 0.0074
13,Cc1nc(NC(=O)N2CCC[C@H]2C(N)=O)sc1-c1ccnc(C(C)(C)C(F)(F)F)c1,0.569 ± 0.28
14,CC(C)NCC(O)COc1cccc2ccccc12 (stereo not drawn) [Propranolol HCl],1.17 ± 0.11
15,CN(C)CCSSCCNC(=O)C1CCN(C(=O)CSc2ccc(Cl)cc2)CC1,1.05 ± 0.11
16,COC(=O)[C@@H]1[C@H]2C[C@H]3c4[nH]c5ccccc5c4CCN3C[C@@H]2CC[C@@H]1O [Yohimbine HCl],1.03 ± 0.026
17,CC(C)C[C@H](NC(=O)[C@H]1O[C@@H]1C(=O)O)C(=O)NCCCCN=C(N)N,1.17 ± 0.11
18,Cc1[nH]c(/C=C2\C(=O)Nc3ccc(S(=O)(=O)N(C)c4cccc(Cl)c4)cc32)c(C)c1C(=O)N1CCN(C)CC1,1.14 ± 0.041
19,O=C(/C=C\n1cnc(-c2cc(C(F)(F)F)cc(C(F)(F)F)c2)n1)NNc1cnccn1,0.29 ± 0.015
20,CN(C)Cc1ccc(-c2nc3cccc4c3n2CCNC4=O)cc1,1.23 ± 0.14
21,CN(C)CC[C@H](CSc1ccccc1)Nc1ccc(S(=O)(=O)NC(=O)c2ccc(N3CCN(Cc4ccccc4-c4ccc(Cl)cc4)CC3)cc2)cc1[N+](=O)[O-],0.412 ± 0.11
22,C[C@H]1COC2=C1C(=O)C(=O)c1c2ccc2c1CCCC2(C)C [Cryptotanshinone],0.336 ± 0.066
23,NC(=O)Cc1cccc(C(=O)c2ccccc2)c1N [Nepafenac],1.28 ± 0.25
24,CCCCCCCCC/C(=C\C1=C(C)C(=O)C(OC)=C(OC)C1=O)C(=O)O,1.16 ± 0.17
25,O=[N+]([O-])c1ccc2c(c1)S(=O)(=O)C=C2 [Stattic],0.204 ± 0.018

row,SMILES,relative cell viability
1,CC[C@H]1OC(=O)[C@H](C)[C@@H](O[C@H]2C[C@@](C)(OC)[C@@H](O)[C@H](C)O2)[C@H](C)[C@@H](O[C@@H]2O[C@H](C)C[C@H](N(C)C)[C@H]2O)[C@](C)(OC)C[C@@H](C)C(=O)[C@H](C)[C@@H](O)[C@]1(C)O [Clarithromycin],1.11 ± 0.028
2,CCCCOc1c(C(=O)c2c(F)cc(C)cc2F)c[nH]c2nncc1-2,0.835 ± 0.055
3,Nc1ccccc1NC(=O)c1ccc(CNC(=O)OCc2cccnc2)cc1 [Entinostat (MS-275)],0.321 ± 0.033
4,N=C(N)NC(=O)c1nc(Cl)c(N)nc1N [Amiloride hydrochloride dihydrate],1.12 ± 0.13
5,N=C(N)NC(=O)c1nc(Cl)c(N)nc1N [Amiloride HCl],1.03 ± 0.073
6,CC(C)C[C@@H]1NC(=O)[C@@H](C(C)C)NC(=O)[C@@H]2CCCN2C(=O)[C@@H](CC(=O)O)NC(=O)[C@@H](Cc2c[nH]c3ccccc23)NC1=O,1.17 ± 0.11
7,CN(C)C(=O)COC(=O)Cc1ccc(OC(=O)c2ccc(NC(=N)N)cc2)cc1 [Camostat Mesilate],1.13 ± 0.18
8,CCOc1cc([C@@H](CS(C)(=O)=O)N2C(=O)c3cccc(NC(C)=O)c3C2=O)ccc1OC,1.12 ± 0.033
9,O=C(O)c1cc(=O)c2ccccc2o1 [Chromocarb],0.961 ± 0.088
10,CCc1cncnc1N1CCN(Cc2nc3ccc(C(F)(F)F)cc3[nH]2)CC1,1.1 ± 0.21
11,CC1=C(C(=O)OC(C)C)C(c2cccc([N+](=O)[O-])c2)C(C(=O)OC2CN(C(c3ccccc3)c3ccccc3)C2)=C(N)N1 (stereo not drawn) [Azelnidipine],0.976 ± 0.023
12,Cc1cc(C2CCCCC2)n(O)c(=O)c1 [Ciclopirox],0.697 ± 0.013
13,Cc1cc(C2CCCCC2)n(O)c(=O)c1 [Ciclopirox ethanolamine],0.602 ± 0.084
14,CN[C@H]1CN(c2ccc3c(=O)c(C(=O)O)cn(-c4nccs4)c3n2)C[C@@H]1OC [Voreloxin (SNS-595)],1.015 ± 0.0091
15,COc1cc(C(=O)NS(=O)(=O)c2ccccc2C)ccc1Cc1cn(C)c2ccc(NC(=O)OC3CCCC3)cc12 [Zafirlukast],1.08 ± 0.019
16,NS(=O)(=O)c1cc2c(cc1Cl)N=CNS2(=O)=O [Chlorothiazide],0.944 ± 0.012
17,COc1ccc(-c2cnc3c(-c4cccc5ncccc45)cnn3c2)cc1,1.17 ± 0.13
18,COc1cc2ncnc(Oc3cccc(NC(=O)Nc4cc(C(C)(C)C(F)(F)F)on4)c3)c2cc1OC,1.1 ± 0.061
19,O=c1c(O)c(-c2ccc(O)c(O)c2)oc2cc(O)ccc12 [Fisetin],0.98 ± 0.081
20,NCC(=O)Nc1ccc(-n2nc(C(F)(F)F)cc2-c2ccc3c(ccc4ccccc43)c2)cc1,0.649 ± 0.017
21,COc1ccc(-c2nc3cc(C4=NNC(=O)CC4C)ccc3[nH]2)cc1 (stereo not drawn) [Pimobendan],0.888 ± 0.033
22,Cc1ccc(S(=O)(=O)n2c(N)nc3ccccc32)cc1 [ML130 (Nodinitib-1)],1.07 ± 0.088
23,NC(=O)c1ncn([C@@H]2O[C@H](CO)[C@@H](O)[C@H]2O)n1 [Ribavirin],0.937 ± 0.11
